Screen size: about 310,000 compounds; about 2,200 (0.71%) showed an effect of 50% or more. The effect is printed as a negative number. The list shows a part of the results.

Chain of human ether-à-go-go-related gene (hERG) potassium channel (Q12809 whole entry, looked up): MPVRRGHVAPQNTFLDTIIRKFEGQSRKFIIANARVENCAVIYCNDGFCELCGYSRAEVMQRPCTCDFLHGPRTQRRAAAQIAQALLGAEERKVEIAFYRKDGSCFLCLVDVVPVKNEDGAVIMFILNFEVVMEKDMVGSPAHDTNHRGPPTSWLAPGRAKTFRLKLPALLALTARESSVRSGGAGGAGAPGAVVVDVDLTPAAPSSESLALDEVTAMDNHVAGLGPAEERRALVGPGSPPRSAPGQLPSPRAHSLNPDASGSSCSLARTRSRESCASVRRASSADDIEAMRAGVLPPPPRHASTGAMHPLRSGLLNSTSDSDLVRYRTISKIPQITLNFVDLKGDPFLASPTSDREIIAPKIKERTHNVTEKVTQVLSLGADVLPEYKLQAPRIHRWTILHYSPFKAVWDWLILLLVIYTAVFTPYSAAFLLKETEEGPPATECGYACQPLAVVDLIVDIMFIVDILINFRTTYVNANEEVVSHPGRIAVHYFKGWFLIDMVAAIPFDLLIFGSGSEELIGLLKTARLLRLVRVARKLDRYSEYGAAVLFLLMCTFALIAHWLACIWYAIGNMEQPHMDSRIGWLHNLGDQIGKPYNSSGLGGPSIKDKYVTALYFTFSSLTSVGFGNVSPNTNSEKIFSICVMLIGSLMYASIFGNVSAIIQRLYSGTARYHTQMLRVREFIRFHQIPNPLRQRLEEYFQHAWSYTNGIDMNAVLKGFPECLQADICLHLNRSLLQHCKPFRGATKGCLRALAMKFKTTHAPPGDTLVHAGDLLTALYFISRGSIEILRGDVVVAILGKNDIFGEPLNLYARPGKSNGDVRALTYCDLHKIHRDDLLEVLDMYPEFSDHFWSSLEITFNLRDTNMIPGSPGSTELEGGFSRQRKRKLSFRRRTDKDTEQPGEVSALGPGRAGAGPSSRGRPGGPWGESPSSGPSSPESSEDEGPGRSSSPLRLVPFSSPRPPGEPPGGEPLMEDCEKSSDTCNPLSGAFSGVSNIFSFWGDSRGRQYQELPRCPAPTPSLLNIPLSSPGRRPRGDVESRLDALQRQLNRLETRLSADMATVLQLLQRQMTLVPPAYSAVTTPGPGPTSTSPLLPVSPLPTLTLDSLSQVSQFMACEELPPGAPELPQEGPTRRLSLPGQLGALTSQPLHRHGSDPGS

The test addresses human ether-à-go-go-related gene (hERG) potassium channel (human, UniProt Q12809). Description: primary screen, population patch clamp on CHO cells stably expressing hERG.
As to `Cc1ccc(CNC(=O)NC23CC4CC(CC(C4)C2)C3)cc1`, the “hERG current change (%, negative = inhibition) at 1uM” value is given as 12.4%.

As for `CCNc1nc(SCC(=O)OC)nc(N(C)C)n1`, the “hERG current change (%, negative = inhibition) at 1uM” value is recorded as -1.18%.

As to `Cc1ccc(S(=O)(=O)Nc2ccc3c(c2)nc(CCN2CCOCC2)n3C)cc1`, the “hERG current change (%, negative = inhibition) at 1uM” value is listed as 6.29%.

For `Cc1cc(C)c(S(=O)(=O)NCC(c2cccnc2)N2CCN(Cc3ccccc3)CC2)c(C)c1` (stereo not drawn), the “hERG current change (%, negative = inhibition) at 1uM” value is on record as -42.6%.

As for `CCCCn1c(N)c(N(CCOC)C(=O)c2cc(-c3ccccc3)nc3ccccc23)c(=O)[nH]c1=O`, the “hERG current change (%, negative = inhibition) at 1uM” value is -14.9%.

For `COc1ccc(C(=O)COC(=O)Cn2nnc3ccccc32)cc1Br`, the “hERG current change (%, negative = inhibition) at 1uM” value stood at 9.53%.

As for `C/C(=N/OC(=O)C1CC1)c1cc(-c2ccc(Cl)cc2)no1`, the “hERG current change (%, negative = inhibition) at 1uM” value is reported as -5.72%.

With `CC(=O)c1ccc(N2CCN(C(=O)c3ccc(Cn4c(=S)[nH]c5ccc(N6CCOCC6)cc5c4=O)cc3)CC2)cc1`, the “hERG current change (%, negative = inhibition) at 1uM” value came to 3.21%.

`CN(C)/C=N/c1nc2nccc(-c3cccnc3)n2n1`: the “hERG current change (%, negative = inhibition) at 1uM” value is 4.7%.

On to `NS(=O)(=O)c1ccc(CCNC(=O)CNC(=O)COc2ccccc2)cc1`, for which the “hERG current change (%, negative = inhibition) at 1uM” value amounted to 13.8%.

Consider `CN1CCN(S(=O)(=O)c2cccc(C(=O)Oc3cccc(Br)c3)c2)CC1`, for which the “hERG current change (%, negative = inhibition) at 1uM” value was found to be 10.1%.

In the case of `COc1ccc(C2CC(=O)CC(=O)C2n2cncn2)cc1` (stereo not drawn), the “hERG current change (%, negative = inhibition) at 1uM” value is 7.43%.

Turning to `COc1cc(CN(C)CCc2ccccc2)ccc1OCc1ccccc1`, the “hERG current change (%, negative = inhibition) at 1uM” value was -12.2%.

With `C#CCSc1nnc(-c2sc(-c3ccccc3)nc2C)n1C`, the “hERG current change (%, negative = inhibition) at 1uM” value is on record as 0.883%.

For the molecule `CCOc1ccccc1Nc1nc2ccccc2n2cnnc12`, the “hERG current change (%, negative = inhibition) at 1uM” value is 13%.

In the case of `COc1cc2c(c(OC)c1OC)CC(=O)N(C)CC2`, the “hERG current change (%, negative = inhibition) at 1uM” value was found to be 6.98%.

For the molecule `O=C(CN1C(=O)CSc2ccccc21)N1CCc2ccccc21`, the “hERG current change (%, negative = inhibition) at 1uM” value was 9.93%.

For `CCOc1ccc(-c2nnn(CCC(=O)O)n2)cc1OC`, the “hERG current change (%, negative = inhibition) at 1uM” value came out at 10.8%.

Consider `CCOC(=O)/C(Sc1nc(-c2ccccc2)cc(-c2ccccc2)c1C#N)=C(\C)O`, for which the “hERG current change (%, negative = inhibition) at 1uM” value was 14.2%.

For the molecule `Cc1cccc(-n2nc(C)c3c(C(=O)O)cc(-c4cccs4)nc32)c1`, the “hERG current change (%, negative = inhibition) at 1uM” value is on record as 4.29%.

`Cc1ccc(OC(=O)c2cncc(Br)c2)c(C)c1`: the “hERG current change (%, negative = inhibition) at 1uM” value is 14.2%.

Consider `CC(=O)NC1C(Oc2ccccc2C)OC2COC(c3ccco3)OC2C1O` (stereo not drawn), for which the “hERG current change (%, negative = inhibition) at 1uM” value is on record as 13%.

Turning to `CCOC(=O)[C@@H]1[C@H]2COc3ccccc3[C@@H]2N2C(=O)N(c3cccc(Cl)c3)C(=O)[C@@]12C`, the “hERG current change (%, negative = inhibition) at 1uM” value is recorded as 6.04%.

Take `COc1ccc(N2CCN(C(=O)Cn3nnc(-c4cccs4)n3)CC2)cc1`: the “hERG current change (%, negative = inhibition) at 1uM” value came out at 17.3%.

These data come from PMC4336329 (PLoS ONE, 2015).
